Results published in PubChem BioAssay AID588795 (National Center for Advancing Translational Sciences (NCATS), 2011).
About 1,400 (0.36%) of roughly 390,000 compounds were called active. The shares of active, inactive and inconclusive entries below differ from those in the screen. Calls follow the shape of the dose curve; as a rule, active = well fitted inhibition curve with a large enough effect; inconclusive = small, poorly fitted or top-dose-only effect; inactive = no such curve, though single readings can be large or run the other way. Where the call is inconclusive, the potency comes from a doubtful curve fit.

biological target: Flap endonuclease 1 (Homo sapiens) (UniProt P39748); experiment: qHTS Assay for the Inhibitors of Human Flap endonuclease 1 (FEN1).; also: nearly all actives have a fitted effect of over 65% in size; settings: Recombinant FEN1 flap cleavage, fluorescence, 15 min; series mostly up to 114 µM; activity change, negative = inhibition: at the top concentration
Sequence of UniProt P39748 (P39748 whole entry, looked up): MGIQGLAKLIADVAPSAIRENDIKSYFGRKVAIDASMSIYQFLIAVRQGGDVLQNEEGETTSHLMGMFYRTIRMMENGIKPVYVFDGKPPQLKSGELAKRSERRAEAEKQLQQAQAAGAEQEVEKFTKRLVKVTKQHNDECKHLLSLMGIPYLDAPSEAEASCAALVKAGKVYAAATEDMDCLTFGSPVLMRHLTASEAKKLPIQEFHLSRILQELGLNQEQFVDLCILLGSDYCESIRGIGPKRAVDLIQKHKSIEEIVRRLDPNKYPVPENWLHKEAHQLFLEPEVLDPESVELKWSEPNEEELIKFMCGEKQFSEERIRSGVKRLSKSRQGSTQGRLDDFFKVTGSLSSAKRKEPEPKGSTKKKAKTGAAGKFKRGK
Procedure, shortened: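 FEN1 at 10 nM, compound pretreatment for 15 min (room temperature), 50 nM final substrate to initiate; endpoint reads at 0 and 15 min; DMSO-only plates used as vehicle background.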
% is scaled to controls: 0 for no effect and ±100 for the full control effect; potency is read from the fitted curve at half-maximal effect; tags tell the direction and shape of the fitted curve.

| Structure (SMILES) | Potency | activity change, negative = inhibition |
| --- | --- | --- |
| CC(C)c1ccccc1OCC(O)CN(CC(O)COc1cccc2ccccc12)C(C)C (stereo not drawn) | inconclusive: 31.6 µM [inhibitor, partial curve, poor fit] | – |
| CCOc1cc2nc(-c3ccc(OC)c(OC)c3)nc(NCCCN3CCOCC3)c2cc1OC | inconclusive: 35.5 µM [inhibitor, partial curve] | – |
| O=C(C1=C(c2ccccc2)C(=O)c2ccccc2C1=O)c1ccccc1 | inconclusive: 70.8 µM [inhibitor, partial curve, poor fit] | – |
| CCOC(=O)c1c(NC(=O)COc2ccc(Cl)cc2Cl)sc2c1CCCCC2 | – | inactive: -3.92% |
| CC1N(C)c2cc(NC(=O)c3ccco3)ccc2C1(C)C (stereo not drawn) | inconclusive: 89.1 µM [inhibitor, single point] | – |
| COc1cc2c(NC3CCN(C(C)C)CC3)nc(N3CCCN(C)CC3)nc2cc1OCCOCCN(C)C | active: 39.8 µM | – |
| CC(C)[C@H](/C=C/C[Si](C)(C)C)[C@H](C)C(O)/C=C/CCCOC(=O)C(C)(C)C (stereo partly drawn) | – | inactive: -18.6% |
| COc1ccc(-n2nc3c(=O)[nH][nH]c3cc2=O)cc1 | inconclusive: 79.4 µM [inhibitor, partial curve, poor fit] | – |
| CCCCNC(=O)c1onc(CSc2ccccc2)c1C(=O)O | – | inactive: 16.2% |
| Cc1cccc(Nc2c(-c3ccc(O)cc3)nc3ncccn23)c1 | inconclusive: 10 µM [inhibitor, partial curve, poor fit] | – |
| COc1ccc(/C=N/NC(=O)c2cccnc2)cc1CN1CCCc2ccccc21 | inconclusive: 50.1 µM [inhibitor, partial curve, poor fit] | – |
| COc1ccc(/C=C/C(=O)NCC(=O)N=Nc2c(O)[nH]c3ccc([N+](=O)[O-])cc23)cc1 | inconclusive: 89.1 µM [inhibitor, single point] | – |
| O=C(Cc1csc(N2CCOCC2)n1)N/N=C/c1ccc(O)c(O)c1O | inconclusive: 56.2 µM [inhibitor, partial curve, poor fit] | – |
| Cc1ccc(NC(=O)Cn2c(=O)n(Cc3ccc(F)cc3)c(=O)c3cccnc32)cc1C | – | inactive: -5.17% |
| O=C1NN(c2ccccc2)C(=O)/C1=C/c1ccc(-c2ccc(Cl)c(C(=O)O)c2)o1 | inconclusive: 39.8 µM [inhibitor, partial curve] | – |
| Cc1c(CN(C)C)c2c(n1C)C(=O)c1ccc(Br)cc1-2 | inconclusive: 56.2 µM [inhibitor, partial curve, poor fit] | – |
| CN(C)CCOC(=O)/C(=C/c1cn(C)c2ccccc12)NC(=O)c1ccccc1 | inconclusive: 100 µM [inhibitor, single point] | – |
| O=S(=O)(NC1CCCCC1Oc1ccccc1)c1ccc(Cl)cc1 (stereo not drawn) | inconclusive: 50.1 µM [inhibitor, partial curve, poor fit] | – |
| COc1ccccc1CNC(=O)Cc1c(C)c2cc3c(C)coc3c(C)c2oc1=O | – | inactive: 16.4% |
| O=C1CNC(=O)N1c1ccc(Cl)cc1 | – | inactive: -3.09% |
| Cc1[nH]c2ccccc2c1C1(O)C(=O)N(Cc2ccccc2)c2ccc(Cl)cc21 (stereo not drawn) | – | inactive: -3.06% |
| Cc1ccc(OCC(=O)Nc2c(C(=O)c3ccc(Cl)cc3)oc3ccccc23)cc1C | – | inactive: 15.2% |
| Cc1[nH]c2ccc(-c3nnc(SCC(=O)c4ccccc4F)o3)cc2c1C | – | inactive: -6.97% |

| Structure (SMILES) | Potency | activity change, negative = inhibition |
| --- | --- | --- |
| Cc1c(Br)c(=O)oc2c(Br)c(O)c(O)cc12 | active: 28.2 µM | – |
| COc1ccc2c(c1)c1ncn(CCN3CCCCC3)c(=O)c1n2C | inconclusive: 89.1 µM [inhibitor, partial curve, poor fit] | – |
| COc1ccc(N2CCN(C(=O)C(C)n3nc(C)c4sc5ccccc5c4c3=O)CC2)cc1 (stereo not drawn) | inconclusive: 56.2 µM [inhibitor, partial curve, poor fit] | – |
| COc1ccc(-c2ccc(NS(=O)(=O)c3cc(C)c(C)cc3C)cc2)nn1 | – | inactive: -17.9% |
| Cc1cc(C)c(-c2cc(NC(=O)COC(=O)c3ccc(C#N)cc3)n(-c3ccccc3)n2)cc1C | inconclusive: 89.1 µM [inhibitor, partial curve, poor fit] | – |
| CN1CCN(CCNC(=O)c2cnn(-c3ccc(F)cc3)c2C2CCN(C(=O)OC(C)(C)C)CC2)CC1 | inconclusive: 3.98 µM [inhibitor, partial curve, poor fit] | – |
| CCOC(=O)NC(=O)CSc1nc2ccccc2[nH]1 | – | inactive: -3.2% |
| CCN(CC)c1ccc(/C=C/c2ccccn2)cc1 | inconclusive: 79.4 µM [inhibitor, single point] | – |
| Cn1c(=O)c(C#N)c(-c2ccc(F)cc2)c2cc(C(=O)c3cc(Cl)cc(Cl)c3O)cnc21 | – | inactive: -7.71% |
| Cc1ccc(N(CC(O)Cn2c3ccccc3c3ccccc32)S(C)(=O)=O)c(C)c1 (stereo not drawn) | inconclusive: 25.1 µM [inhibitor, single point] | – |
| CC(=O)Nc1ccc(S(=O)(=O)Nc2ncccn2)cc1 | – | inactive: -15.9% |
| O=C1c2ccccc2C(=O)N1Cc1cc(-c2ccccc2)no1 | inconclusive: 89.1 µM [inhibitor, partial curve, poor fit] | – |
| COc1ccccc1/C=C1\SC(=S)N(NS(=O)(=O)c2ccccc2)C1=O | – | inactive: -15.6% |
| Cc1ccc(C)c(NC(=O)CSc2ccc3nc(-c4ccccc4)cn3n2)c1 | – | inactive: 13.8% |
| Cc1ccccc1OCC(O)CN1CCN(CCN2C(=O)c3cccc4cccc(c34)C2=O)CC1 (stereo not drawn) | inconclusive: 50.1 µM [inhibitor, partial curve] | – |
| Oc1cc2c(cc1O)C1c3ccc(O)c(O)c3OCC1(O)C2 (stereo not drawn) | active: 35.5 µM | – |
| CC(C)C1N=C2c3ccccc3N=C(SCc3cc(=O)n4cc(Cl)ccc4n3)N2C1=O (stereo not drawn) | inconclusive: 35.5 µM [inhibitor, partial curve, poor fit] | – |
| Cc1[nH]cnc1CN1CCc2c(c3ccccc3n2C)C1=O | inconclusive: 31.6 µM [inhibitor, single point] | – |
| CC(C)C[C@H]1COCCS(=O)(=O)N1Cc1ccccc1F | inconclusive: 39.8 µM [inhibitor, single point] | – |
| Cc1nn(CC(=O)NCCc2ccccc2)c(=O)c2nn(-c3ccccc3)c(C)c12 | – | inactive: -1.56% |
| NS(=O)(=O)c1ccc(-c2ccc(/C=C3\NC(=S)NC3=O)o2)cc1 | active: 50.1 µM | – |
| N#Cc1c(N)n(CCOC(=O)c2cccc([N+](=O)[O-])c2)c2nc3ccccc3nc12 | inconclusive: 11.2 µM [inhibitor, partial curve, poor fit] | – |
| O=C(O)c1cccc2c(-c3ccccc3)c(-c3ccccc3)[nH]c12 | inconclusive: 79.4 µM [inhibitor, partial curve, poor fit] | – |

| Structure (SMILES) | Potency | activity change, negative = inhibition |
| --- | --- | --- |
| O=C(C[n+]1cccc(Br)c1)c1ccc(F)cc1 | – | inactive: 11.1% |
| COC(=O)c1c(C)oc2c1cc(NS(=O)(=O)c1ccc(C(=O)O)cc1)c1ccccc12 | inconclusive: 28.2 µM [inhibitor, full curve, poor fit] | – |
| CC(=O)c1ccc(NC(=O)CSc2nnc(-c3ccco3)c(-c3ccco3)n2)cc1 | active: 31.6 µM | – |
| COc1ccc(S(=O)(=O)NCCCCCC(=O)O)cc1C(=O)O | – | inactive: 20.9% |
| CCOC(=O)c1c(C)oc2nc(C)nc(NCCc3ccc(OC)c(OC)c3)c12 | inconclusive: 3.55 µM [inhibitor, partial curve, poor fit] | – |
| O=C(CCCCCN1CCN(c2ccccc2-c2ccccc2)CC1)NC1CCCc2ccccc21 (stereo not drawn) | inconclusive: 26.7 µM [inhibitor, partial curve, poor fit] | – |
| O=C1CSC(=S)N1/N=C/c1cccnc1 | – | inactive: 3.89% |
| C=CCn1c(SC(C)C#N)nc2ccccc2c1=O (stereo not drawn) | – | inactive: 15.3% |
| Cc1ccc(C)c(SCC(=O)OCC(=O)Nc2ccc(S(=O)(=O)N3CCOCC3)cc2)c1 | inconclusive: 50.1 µM [inhibitor, partial curve, poor fit] | – |
| OC(CNCC1CCCO1)Cn1c2ccc(Cl)cc2c2cc(Cl)ccc21 (stereo not drawn) | inconclusive: 50.1 µM [inhibitor, partial curve] | – |
| Oc1cc2c(cc1C(c1ccc(Cl)c(Cl)c1)N1CCCC1)OCO2 (stereo not drawn) | – | inactive: 1.59% |
| CC(OC(=O)/C(C#N)=C/c1ccc(N(C)C)cc1)C(=O)N(C)Cc1ccccc1 (stereo not drawn) | inconclusive: 31.6 µM [inhibitor, full curve] | – |
| COCCCn1c(SCc2cccc(OC)c2)nc2cc(OC)c(OC)cc2c1=N | inconclusive: 89.1 µM [inhibitor, single point] | – |
| CCN(CCN(C)C)C(=O)c1ccc2c(c1NCCO)C(=O)c1ccccc1C2=O | inconclusive: 50.1 µM [inhibitor, partial curve] | – |
| O=C(CSCc1nc2ccccc2[nH]1)N1CCN(c2cccc(Cl)c2)CC1 | inconclusive: 3.55 µM [inhibitor, partial curve, poor fit] | – |
| CC(C)CCNC(=O)c1cc(-c2ccc(Br)s2)nc2ccccc12 | – | inactive: -14.6% |
| CCC(CO)Oc1cc(NCc2ccccc2C)c2ncn(C(C)C)c2c1 (stereo not drawn) | inconclusive: 17.8 µM [inhibitor, partial curve, poor fit] | – |
| CCOc1ccc(N(CC(=O)Nc2c(C)n(C)n(-c3ccccc3)c2=O)S(=O)(=O)c2ccc(F)cc2)cc1 | inconclusive: 89.1 µM [inhibitor, single point] | – |
| COCCNS(=O)(=O)c1ccc2c(c1)Cc1cc(S(=O)(=O)NCCOC)ccc1-2 | – | inactive: -0.941% |
| Cc1c(C(=O)NC(=S)Nc2ccccc2N2CCCC2)cccc1[N+](=O)[O-] | inconclusive: 89.1 µM [inhibitor, partial curve, poor fit] | – |
| COc1cccc(C2CC(=O)N3CN(c4ccccc4F)CSC3=C2C#N)c1 (stereo not drawn) | inconclusive: 89.1 µM [inhibitor, single point] | – |
| CCO[C@H]1OC(C(=O)Nc2ccccc2)=C[C@@H](c2csc3ccccc23)[C@@H]1CCCO | inconclusive: 79.4 µM [inhibitor, partial curve, poor fit] | – |
